Test results: the supplement of paper PMC3334620
The full ranking holds about 33,000 sequences; the median of “E-score (-0.5 to 0.5)” is about -0.053, and the highest 2% start at about 0.37. The list shows a part of the results.

biological target: Hap1 (UniProt P0CE41); experiment: PBM E-score (8-mer binding enrichment) (E-score (-0.5 to 0.5)); higher = stronger / more preferred TF binding; most listed sequences are background and not binding sites; conditions: protein concentration: 200 nM; construct: GST-DNA-binding domain
Summary of the method: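 Yeast transcription factors carrying a GST tag, as full-length proteins or DNA-binding domains, were produced by PURExpress in vitro transcription/translation. About 100-200 nM protein was applied to universal all-10-mer Agilent arrays, double-stranded by primer extension on fresh or once-stripped slides. Bound protein was detected with fluorescent anti-GST, and scans were normalised with masliner. The Universal PBM Analysis Suite gave each ungapped eight-base word, pooled with its reverse complement, an E-score, a modified Wilcoxon-Mann-Whitney statistic.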

Chain of UniProt P0CE41 (P0CE41 whole entry, the tested form may be a part): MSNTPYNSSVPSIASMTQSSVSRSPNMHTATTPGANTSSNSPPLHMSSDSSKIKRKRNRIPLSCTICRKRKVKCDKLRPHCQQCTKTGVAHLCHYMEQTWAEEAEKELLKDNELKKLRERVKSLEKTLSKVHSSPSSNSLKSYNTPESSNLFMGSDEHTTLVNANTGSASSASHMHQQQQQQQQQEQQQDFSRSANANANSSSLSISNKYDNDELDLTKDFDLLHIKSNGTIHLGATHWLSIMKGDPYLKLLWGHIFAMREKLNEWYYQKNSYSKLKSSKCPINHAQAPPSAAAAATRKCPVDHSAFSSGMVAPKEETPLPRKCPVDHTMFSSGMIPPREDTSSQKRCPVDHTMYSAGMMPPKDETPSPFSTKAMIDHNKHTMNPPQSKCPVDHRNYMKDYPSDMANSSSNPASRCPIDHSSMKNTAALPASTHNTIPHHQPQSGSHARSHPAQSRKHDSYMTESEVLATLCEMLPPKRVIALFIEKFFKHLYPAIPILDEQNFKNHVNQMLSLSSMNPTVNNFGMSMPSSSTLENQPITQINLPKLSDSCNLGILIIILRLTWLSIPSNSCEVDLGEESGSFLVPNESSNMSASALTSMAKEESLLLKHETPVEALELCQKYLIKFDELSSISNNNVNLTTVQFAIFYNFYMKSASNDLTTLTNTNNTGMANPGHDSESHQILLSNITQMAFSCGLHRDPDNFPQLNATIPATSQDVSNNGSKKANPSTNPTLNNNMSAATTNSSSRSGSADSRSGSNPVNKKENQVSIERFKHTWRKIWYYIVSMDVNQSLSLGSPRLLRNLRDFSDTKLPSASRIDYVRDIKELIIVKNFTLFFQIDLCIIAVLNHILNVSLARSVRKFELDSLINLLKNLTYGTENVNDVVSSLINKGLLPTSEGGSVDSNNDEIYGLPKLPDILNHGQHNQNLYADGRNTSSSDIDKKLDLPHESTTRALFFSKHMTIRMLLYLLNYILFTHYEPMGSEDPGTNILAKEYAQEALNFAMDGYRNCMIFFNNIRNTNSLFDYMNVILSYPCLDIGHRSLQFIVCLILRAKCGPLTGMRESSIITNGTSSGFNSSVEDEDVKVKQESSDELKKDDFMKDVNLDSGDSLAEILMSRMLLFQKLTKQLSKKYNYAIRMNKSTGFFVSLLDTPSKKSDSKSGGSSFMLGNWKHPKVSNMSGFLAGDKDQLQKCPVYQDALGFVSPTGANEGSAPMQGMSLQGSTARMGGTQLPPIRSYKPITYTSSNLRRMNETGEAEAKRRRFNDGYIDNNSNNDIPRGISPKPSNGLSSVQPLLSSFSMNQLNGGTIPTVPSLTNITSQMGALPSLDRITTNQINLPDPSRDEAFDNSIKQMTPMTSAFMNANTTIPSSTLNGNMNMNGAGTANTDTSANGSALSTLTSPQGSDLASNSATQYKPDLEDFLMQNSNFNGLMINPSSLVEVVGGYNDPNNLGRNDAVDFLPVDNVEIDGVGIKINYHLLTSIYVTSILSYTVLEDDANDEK

Sequence	PBM E-score
CCGGAACA	0.376
ACCACATG	-0.235
TAAATGAA	-0.229
ACTTAGGC	-0.141
ACCCCGTC	0.19
CTGCCAAC	-0.212
AACCATGC	0.0277
AGTTAAAC	-0.107
ACGGCCAG	-0.041
AAAGTCAA	-0.0916
TCCATGCA	0.0556
ACTCTACA	-0.131
AGCACGCT	-0.269
CACTCCGA	0.212
ACTGTAGG	-0.118
ACGAAGGA	-0.175
AAAGGTCG	-0.09
TCATTAAA	0.0575
CTTACGTC	-0.12
TCTTAAAA	-0.177
CTTAGTAA	-0.11
GTTATGGA	0.0461
CGAGTTTC	0.00473
AGTGGTTG	-0.128
ACGGCGTG	0.0794

Sequence	PBM E-score
GAAGGACC	-0.00646
GAATAGCC	0.137
AACAGCGA	-0.0524
ATGAACAA	-0.0683
GAGGCTAC	-0.181
AATAGGCA	0.0991
GGACGCGA	0.0258
AGCTGTAT	-0.242
ACCTTACC	-0.0659
TAGCAACA	-0.026
CCGCTAGC	0.194
AAGCACCA	-0.277
AATGCCCG	0.245
CCTCTGCC	-0.162
ACCAATAG	-0.163
AGTGCTTG	-0.242
CGAATGTC	-0.0766
ATTTGCCG	0.267
CTCTCCTA	-0.244
AACATACG	0.183
GGCCTGAC	0.0959
ACATTAGG	-0.186
CACTGGAA	-0.275
GACAAGCA	-0.0476
GAGCGAGA	0.168

Sequence	PBM E-score
ATTCTTTC	0.0784
AAGCTCGT	-0.181
ACTGGAAA	-0.122
ATGTGGGA	-0.103
GCTGTACA	-0.0772
AATTTGCG	0.0815
GAACATTC	0.0513
CTTGACAA	-0.135
GAGGCGAA	0.0536
CGAGGGTC	0.056
AGGCGACC	0.0226
GATCATCA	-0.187
ACAGAAGT	-0.221
ATCGATCA	-0.0196
TCACCTGA	-0.195
GCCAGCCC	-0.133
CCGTAAAC	0.197
CCATGGAC	-0.129
CGAGCCTC	0.0621
CCGCAGGA	0.096
ACGCCTCT	-0.0953
CGCCGATA	0.426
ACCGAAGC	0.227
ATCGCGCG	0.204
ACGAAGGC	-0.0703

Sequence	PBM E-score
GTACAACA	-0.165
GTACACAA	-0.185
GCAGGAAC	-0.0812
CTATGACA	-0.239
CGCGTTCA	0.0396
ATACATGC	-0.0662
CATGCCGG	0.298
CGTCTTGA	-0.0786
AACAGAAA	-0.238
ACGATGGC	-0.107
TACTGGGA	-0.0481
TGTGTTAA	-0.148
CGAAAGAA	0.0698
AGTGCGAC	-0.022
AGCGAGGG	-0.214
ACCCGAGG	0.182
CCATTATA	0.0773
ATGGTTTA	0.043
CTCGTTGC	-0.148
ATGGCCAA	-0.0562
GTGTAATA	0.00414
GCGGGCCA	0.121
TACATTAA	-0.156
AGATTTAG	0.0894
CTCTTGTC	0.0191

Sequence	PBM E-score
AATTATCC	0.231
ACATGGTA	-0.21
ATCAAAGG	-0.168
ATGAGACC	-0.0744
ACGCCATC	-0.103
CAAGGGCA	-0.226
ATTCATGA	-0.271
CCACCGAA	0.187
CACTCCCG	0.0991
CGGACAAG	0.357
CTAAGAAG	-0.0922
CAAACCCA	-0.145
GAGCGACC	-0.107
GAATAGTA	-0.0351
CGTATCCA	-0.173
AGTAAATC	-0.00532
GGATAAGA	0.0382
AACACGCC	0.0448
GAAATGTC	0.146
AAGATTGA	-0.251
ACATTTAT	-0.149
GCTCTTTA	0.0639
ACGGACTC	0.223
GCAACCCC	0.0182
ACTGAGAA	-0.227

Sequence	PBM E-score
ATGACGAG	-0.168
ATAAATGG	-0.101
CGGGATTA	0.454
ATCGTTGA	-0.0674
AGCATTAG	-0.113
ATCGTCAA	-0.0668
CACCTTAG	-0.0735
CTCTCTGC	-0.112
ACCCACGT	-0.156
AAACGGTA	0.11
CAGCTCGG	0.359
ACACGAAT	0.0924
GTATCGGA	0.415
AAGCCAGA	-0.0977
AACCTAAT	-0.0215
ACTACCGA	0.161
ATTCCGCG	0.285
AATATGAA	-0.0613
CTGCCTGA	-0.019
CACGGAAA	0.295
ATCACAAT	-0.0674
TAGATGGA	-0.266
GAGTCCGC	0.249
GGACGCAC	0.0282
GTAGAATA	-0.126

Sequence	PBM E-score
TCCACGCA	-0.0804
ACGTGACG	-0.0633
CTAGCAAC	-0.0735
CACAAAGG	-0.168
AGCAGACA	-0.24
ACGGACAT	0.421
CCCAGTCC	-0.03
CCACAGCC	-0.0703
CCCACTGA	-0.118
GTGACATA	-0.0913
CTCCAGAG	-0.0749
CCTCCTAG	-0.237
AGGACTGG	-0.218
ACCAAGGG	-0.173
AATTCAAA	-0.184
GGGTGTAA	0.143
GGTCGCGA	0.213
AGGGTGCC	-0.108
ATAGTCAA	-0.194
GGACATGA	0.272
ATCCTAAA	-0.135
ACAACTAA	-0.119
ACTGACAA	-0.265
GCAAGTCA	-0.0957
ACCTAATA	-0.0382

Sequence	PBM E-score
TCGGGGCA	0.299
TCATCGGA	0.316
GTGCTTAA	0.0585
CCAGAAGG	-0.165
ACATTTTC	0.12
GACCTCCC	-0.028
CGCTAACC	0.127
TAGGATAA	-0.148
ATCGTCAC	-0.102
AAATAAGG	0.0258
AGCTCCAC	-0.043
AGGAAGAC	-0.309
ACACGATG	-0.172
GGTATAAC	0.0793
ATCGGCGC	0.343
ACGCCTCA	-0.307
GCATTAAC	0.216
AGTTTTAG	-0.0919
GTTACTTA	-0.0394
GCGCCCGA	0.353
AAGACGCA	0.106
TAGCGACA	-0.0862
CACCAGAG	-0.248
CGACATAA	-0.0157
ACCGATGG	0.0307

Sequence	PBM E-score
AGCTATAC	-0.111
GAAGTTGC	-0.2
CTCGCAGC	-0.0264
GTAGGCCA	-0.153
AGATGCTC	0.0626
CAGTGGCG	-0.154
ACGTGTTG	-0.119
CGTCCCAG	-0.0968
AGGACTCA	-0.259
AACCTGAC	-0.3
AGACCTCA	-0.391
AATGTCCT	-0.144
ATGGCTCA	-0.343
AGGTACTC	-0.145
ACCTGCGG	0.29
CACGATCA	-0.118
CGCATGCC	0.1
AGCTGAAA	0.112
GAAGTTTA	0.074
